# From patent publication US12433952B2, “Antibody-drug conjugates targeting folate receptor alpha and methods of use” (ZYMEWORKS BC INC., priority 2022, dated 2025)
# B1: v30384-MT-GGFG-AM-Compound 139 (conjugate)
# heavy 1: EVQLLESGGGLVQPGGSLRLSCAVSGFSLSSYGVSWVRQAPGKGLEWIGAVNSGGSAYYADSVKGRSTISRDNSKNTVYLQMNSLRAEDTAVYYCARSGSGYPMDYLAIWGQGTLVTVSSASTKGPSVFPLAPSSKSTSGGTAALGCLVKDYFPEPVTVSWNSGALTSGVHTFPAVLQSSGLYSLSSVVTVPSSSLGTQTYICNVNHKPSNTKVDKKVEPKSCDKTHTCPPCPAPELLGGPSVFLFPPKPKDTLMISRTPEVTCVVVDVSHEDPEVKFNWYVDGVEVHNAKTKPREEQYNSTYRVVSVLTVLHQDWLNGKEYKCKVSNKALPAPIEKTISKAKGQPREPQVYVYPPSRDELTKNQVSLTCLVKGFYPSDIAVEWESNGQPENNYKTTPPVLDSDGSFALVSKLTVDKSRWQQGNVFSCSVMHEALHNHYTQKSLSLSPG
# heavy 2: EVQLLESGGGLVQPGGSLRLSCAVSGFSLSSYGVSWVRQAPGKGLEWIGAVNSGGSAYYADSVKGRSTISRDNSKNTVYLQMNSLRAEDTAVYYCARSGSGYPMDYLAIWGQGTLVTVSSASTKGPSVFPLAPSSKSTSGGTAALGCLVKDYFPEPVTVSWNSGALTSGVHTFPAVLQSSGLYSLSSVVTVPSSSLGTQTYICNVNHKPSNTKVDKKV[human IgG1 Fc with changes not written out]
# light: DYQMTQSPSSVSASVGDRVTITCRASQSIGDWLAWYQQKPGKAPKLLIYEASTLASGVPSRFSGSGSGTDFTLTISSVQPEDAATYYCQQGYGRSNVDNIFGGGTKVEVKRTVAAPSVFIFPPSDEQLKSGTASVVCLLNNFYPREAKVQWKVDNALQSGNSQESVTEQDSKDSTYSLSSTLTLSKADYEKHKVYACEVTHQGLSSPVTKSFNRGEC
# B2: v30384-MT-GGFG-Compound 141 (conjugate)
# heavy 1: B1 heavy 1
# heavy 2: EVQLLESGGGLVQPGGSLRLSCAVSGFSLSSYGVSWVRQAPGKGLEWIGAVNSGGSAYYADSVKGRSTISRDNSKNTVYLQMNSLRAEDTAVYYCARSGSGYPMDYLAIWGQGTLVTVSSASTKGPSVFPLAPSSKSTSGGTAALGCLVKDYFPEPVTVSWNSGALTSGVHTFPAVLQSSGLYSLSSVVTVPSSSLGTQTYICNVNHKPSNTKVDKKV[human IgG1 Fc with changes not written out]
# light: B1 light
# B3: v30384-MC-GGFG-AM-Compound 141 (conjugate)
# heavy 1: B1 heavy 1
# heavy 2: EVQLLESGGGLVQPGGSLRLSCAVSGFSLSSYGVSWVRQAPGKGLEWIGAVNSGGSAYYADSVKGRSTISRDNSKNTVYLQMNSLRAEDTAVYYCARSGSGYPMDYLAIWGQGTLVTVSSASTKGPSVFPLAPSSKSTSGGTAALGCLVKDYFPEPVTVSWNSGALTSGVHTFPAVLQSSGLYSLSSVVTVPSSSLGTQTYICNVNHKPSNTKVDKKV[human IgG1 Fc with changes not written out]
# light: B1 light
# B4: v30384-MT-GGFG-Compound 148 (conjugate)
# heavy 1: B1 heavy 1
# heavy 2: EVQLLESGGGLVQPGGSLRLSCAVSGFSLSSYGVSWVRQAPGKGLEWIGAVNSGGSAYYADSVKGRSTISRDNSKNTVYLQMNSLRAEDTAVYYCARSGSGYPMDYLAIWGQGTLVTVSSASTKGPSVFPLAPSSKSTSGGTAALGCLVKDYFPEPVTVSWNSGALTSGVHTFPAVLQSSGLYSLSSVVTVPSSSLGTQTYICNVNHKPSNTKVDKKV[human IgG1 Fc with changes not written out]
# light: B1 light
# B5: v30384-MC-GGFG-Compound 140 (conjugate)
# heavy 1: B1 heavy 1
# heavy 2: EVQLLESGGGLVQPGGSLRLSCAVSGFSLSSYGVSWVRQAPGKGLEWIGAVNSGGSAYYADSVKGRSTISRDNSKNTVYLQMNSLRAEDTAVYYCARSGSGYPMDYLAIWGQGTLVTVSSASTKGPSVFPLAPSSKSTSGGTAALGCLVKDYFPEPVTVSWNSGALTSGVHTFPAVLQSSGLYSLSSVVTVPSSSLGTQTYICNVNHKPSNTKVDKKV[human IgG1 Fc with changes not written out]
# light: B1 light
# System: MDA-MB-468 (breast adenocarcinoma; FRα-negative)
# Assay: In vitro cytotoxicity of ADCs, 2D monolayer (CellTiter-Glo)
# Type: cell-based
# Details: 4 days, DAR 8, FRα-negative
# Experimental: The cell growth inhibition (cytotoxicity) capabilities of the humanized variant v30384 conjugated to various drug-linkers were assessed in a panel of FRα-expressing cell lines as described below. Cell lines used were KB—HeLa (endocervical carcinoma), JEG-3 (choriocarcinoma), T-47D (breast carcinoma) and MDA-MB-468 (breast adenocarcinoma; FRα-negative).
# Briefly, cells were seeded in 384-well plates and treated with a titration of test article, generated in cell growth medium. Cells were incubated for 4 days under standard culturing conditions. After incubation, CellTiter-Glo® reagent (Promega Corporation, Madison, WI) was spiked in all wells and luminescence corresponding to ATP present in each well was measured using a Synergy™ H1 plate reader (BioTek Instruments, Winooski, VT). Based on blank wells (no test article added), % cytotoxicity values were calculated and plotted against test article concentration using GraphPad Prism 9 software (GraphPad Software, San Diego, CA).
row,Molecule,EC50 [nM]
1,B1,36.7
2,B2,25.7
3,B3,83.2
4,B4,21.2

# System: EBC-1 (lung carcinoma; FRα-negative) spheroids
# Assay: In vitro cytotoxicity of ADCs, 3D spheroids (CellTiter-Glo 3D)
# Type: cell-based
# Details: EBC-1 (FRα-negative) spheroids, 6-day treatment, DAR 8
# Experimental: The 3D cytotoxicity capabilities of the humanized variant v30384 conjugated to various drug-linkers as shown in Table 27.1 were assessed in a panel of FRα-expressing cell line spheroids as described below. Spheroids provide a three-dimensional organization of cells with layers of distinct cell populations and the formation of different gradients from the outer to the inner regions. Cell signaling is more complex in spheroids than in two-dimensional cell cultures. As a result of these features, spheroids have the potential to recapitulate drug resistance and metabolic adaptation.
# Cell lines used were IGROV-1 (ovarian adenocarcinoma), T-47D (breast carcinoma), OVCAR-3 (ovarian adenocarcinoma), HEC-1-A (uterine adenocarcinoma) and EBC-1 (lung carcinoma; FRα-negative).
# Briefly, cells were seeded in Ultra-Low Attachment 384-well plates, centrifuged and incubated under standard culturing conditions to allow for spheroid formation and growth. Monoculture cell line spheroids were then treated with a titration of test article, generated in cell growth medium. Spheroids were incubated for 6 days under standard culturing conditions. After incubation, CellTiter-Glo® 3D reagent (Promega Corporation, Madison, WI) was spiked in all wells. Plates were incubated in the dark at room temperature for 1 hour and luminescence was quantified using a BioTek Cytation 5 Cell Imaging Multi-Mode Reader (Agilent Technologies, Inc., Santa Clara, CA). Based on blank wells (no test article added), percent cytotoxicity values were calculated and plotted against test article concentration using GraphPad Prism 9 software (GraphPad Software, San Diego, CA).
row,Molecule,EC50 [nM]
1,B1,23
2,B2,22.5
3,B3,12.8
4,B5,7.6

# System: OV90 xenograft
# Assay: In vivo anti-tumor activity, OV90 model study #1
# Design: species or system mouse
# Details: OV90 study #1, 3 mg/kg single IV dose, DAR 8
# Experimental: (§1) The in vivo anti-tumor activities of humanized variant v30384 conjugated to various drug-linkers were assessed in a numberofxenograft models as describedbelow.
# (§2) All ADCs were DAR 8. For each xenograft study, tumor volume and body weight of the animals were measured twice weekly.
# (§3) For the OV90 model studies #1 and #2, tumor cell suspensions (1×10^7 cells in 0.1 ml 50% Matrigel®) were implanted subcutaneously into female CB. 17 SCID mice. When mean tumor volume reached 100-150 mm^3, the animals were randomly assigned to groups (n=6 per group for study #1, and n=8 per group for study #2) and treated on study day 1 with a single IV dose of test article as shown in Table 28.1. Serum was collected at a number of timepoints for PK analysis.
row,Molecule,effect on tumor growth rate
1,B1,superior inhibition of tumor growth rate compared to v30384-MC-GGFG-AM-DXd
2,B2,superior inhibition of tumor growth rate compared to v30384-MC-GGFG-AM-DXd

# System: OV90 xenograft
# Assay: In vivo anti-tumor activity, OV90 model study #2
# Design: species or system mouse
# Details: OV90 study #2, 3 mg/kg single IV dose, DAR 8
# Experimental: as §1, §2, §3
row,Molecule,effect on tumor growth
1,B3,tumor regressions

# System: NCI-H2110 CDX xenograft
# Assay: In vivo anti-tumor activity, NCI-H2110 CDX model
# Design: species or system mouse
# Details: 6 mg/kg single IV dose, DAR 8
# Experimental: as §1, §2
# For the NCI-H21 10 CDX model study, tumor cell suspensions (1×10^7 cells in 0.1 ml 50% Matrigel®) were implanted subcutaneously into CB. 17 SCID mice. When mean tumor volume reached ˜140 mm^3 the animals were randomly assigned to groups (n=6 per group) and treated with a single IV dose of test article on study day 0 as shown in Table 28.1.
row,Molecule,effect on tumor growth
1,B1,did not result in significant tumor growth rate inhibition
2,B3,did not result in significant tumor growth rate inhibition
3,B5,stasis of tumor growth for approximately 2 weeks post-dose
4,B4,stasis of tumor growth for approximately 2 weeks post-dose

# System: not listed separately
# Assay: Pharmacokinetics of ADCs in OV90 tumor-bearing mice (total IgG ELISA)
# Type: in vivo, mouse
# Details: OV90 #1 model, 3 mg/kg single IV dose, total IgG in serum
# Experimental: (§4) Serum was collected from the xenograft studies described in Example 28, as noted, and analyzed for the pharmacokinetics (PK) of the ADCs as described below.
# (§5) Absorbance at 450 nm was measured using a Synergy™ H1 Hybrid Multi-Mode Plate Reader (BioTek Instruments, Winooski, VT). Pharmacokinetics parameters were calculated from non-compartmental analysis using Phoenix WinNonlin™ software (Certara, Princeton, NJ).
row,Molecule,Half-life [days]
1,B1,8.27
2,B2,5.63

# Same assay, conditions: OV90 #2 model, 3 mg/kg single IV dose, total IgG in serum
row,Molecule,Half-life [days]
1,B3,5.17

# System: not listed separately
# Assay: Pharmacokinetics of ADCs in NCI-H2110 tumor-bearing mice (total IgG ELISA)
# Type: in vivo, mouse
# Details: NCI-H2110 model, 6 mg/kg single IV dose, total IgG in serum
# Experimental: as §4, §5
row,Molecule,Half-life [days]
1,B1,2.39
2,B3,1.87
3,B5,2.70
4,B4,3.64

# System: not listed separately
# Assay: Murine tolerability study (Balb/c)
# Type: in vivo, mouse
# Details: 60 and 200 mg/kg
# Experimental: ADCs comprising humanized variant v30384 conjugated to various drug-linkers as shown in Table 30.1 were assessed for tolerability in mice at single doses of 60 and 200 mg/kg as described below.
# Test articles were administered to mice (Balb/c, female, 6-8 weeks old, -20g) via 20 ml/kg intraperitoneal injections at 60 and 200 mg/kg. From each dose group, 3 mice were subject to planned observation for 3 weeks post-dose. An additional 3 mice were subject to planned observation for 1 week post-dose, followed by termination and examination of formalin-fixed, paraffin-embedded organs. Mice were euthanized if body weight fell by ≥20% from pre-dose levels. Serum collection was planned for all mice at 24 hr and 7 day post-dose for pharmacokinetic analysis.
row,Molecule,treatment related microscopic findings
1,B1,No treatment related microscopic findings
2,B5,"present in intestine, bone marrow, thymus, spleen and mesenteric lymph node"
3,B4,"present in intestine, bone marrow, thymus, spleen and mesenteric lymph node"

# Same assay, conditions: 60 or 200 mg/kg
row,Molecule,treatment-related macroscopic changes
1,B1,No treatment-related macroscopic changes
2,B2,No treatment-related macroscopic changes
3,B5,Macroscopic changes considered related to the ADCs were present in preterminal animals
4,B4,Macroscopic changes considered related to the ADCs were present in preterminal animals

# Same assay, conditions: single intraperitoneal doses of 60 and 200 mg/kg, Balb/c mice
row,Molecule,"tolerability (body weight, mortality)"
1,B1,well tolerated at both 60 and 200 mg/kg
2,B2,well tolerated at both 60 and 200 mg/kg
3,B5,"rapid body weight loss, mortality or sacrifice due to moribund condition between 3-6 days post dose"
4,B4,"rapid body weight loss, mortality or sacrifice due to moribund condition between 3-6 days post dose"

# System: FRα-negative MDA-MB-468 cells co-cultured with FRα-positive JEG-3
# Assay: Bystander activity of ADCs (mono-culture vs co-culture, flow cytometry)
# Type: cell-based
# Details: mono-culture viability compared with co-culture viability, 2 nM ADC, 4 days
# Experimental: The ability of the humanized variant v30384 conjugated to various drug-linkers to exert a bystander killing effect on cancer cells was assessed according to the method described below. Bystander killing most commonly occurs after target-specific uptake of an ADC into an antigen-positive cell. Trafficking and degradation of the ADC results in release of active catabolite free drug, which then crosses the cell membrane of nearby cells to elicit cell death.
# FRα-positive JEG-3 and FRα-negative MDA-MB-468 cells were seeded either as mono-cultures or co-cultures in a 48-well plate at 20,000 cells and 10,000 cells, respectively, in 100 μL assay media (Minimum Essential Media supplemented with 10% Fetal Bovine Serum (both from Thermo Fisher Scientific, Waltham, MA)). ADCs were diluted to 4 nM in assay media and 100 μL was added to the cell-containing plates (2 nM final ADC concentration). Cells were incubated with ADCs for 4 days under standard culturing conditions (37° C./5% C02). Following incubation, cells were dissociated, washed, and stained using a viability dye, YO—PRO®-1 (ThermoFisher Scientific, Waltham, MA), and an anti-FRα antibody, mirvetuximab (v17716), conjugated to Alexa Fluor®647, for 20 minutes at 4° C. After incubation, cells were washed in FACS buffer (phosphate buffered saline pH 7.4 (ThermoFisher Scientific, Waltham, MA) supplemented with 2% FBS), resuspended in 70 μL FACS buffer per well, and 35 μL per well were analyzed on a BD LSRFortessa™ Cell Analyzer (BD Biosciences, Franklin Lake, NJ). Dead cells were excluded by gating on YO—PRO®-1 staining. The number of JEG-3 and MDA-MB-468 cells were determined by the number of events in the Alexa Fluor®647 positive (FRα-positive) and Alexa Fluor®647 negative (FRα-negative) gates, respectively. Percent viability was calculated as the number of cells in treatment condition divided by the number of cells in the no-treatment condition.
row,Molecule,% Bystander Activity [%]
1,B1,44.6
2,B2,49.7
3,B4,51.7
